The list shows a part of the results. Sequences were assembled here from the parent chain. Values near 0.05 are background.
B1: TEV protease; numbered along this chain (parent)
chain: MGESLFKGPRDYNPISSSICHLTNESDGHTTSLYGIGFGPFIITNKHLFRRNNGTLVVQSLHGVFKVKDTTTLQQHLVDGRDMIIIRMPKDFPPFPQKLKFREPQREERICLVTTNFQTKSMSSMVSDTSCTFPSGDGIFWKHWIQTKDGQCGSPLVSTRDGFIVGIHSASNFTNTNNYFTSVPKNFMELLTNQEAQQWVSGWRLNADSVLWGGHKVFMVKPEEPFQPVKEATQL

Variants of: B1
Assay: raw area under fraction-flipped curve 0-4 h after induction (AUC4h, not background-subtracted), DNA-recorder readout of cleavage of the substrate (dimensionless); higher = more cleavage of the substrate by the protease variant
Conditions: temperature: 34 °C; time window: 0-4 h after rhamnose induction
Procedure: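 In vivo DNA recorder in E. coli TOP10(DE3) ΔrhaA at 34 °C. Each TEVp single-site mutant (parent TEVp 0) is paired with a single-site variant of the 7-mer TEVs (canonical ENLYFQ|S). The substrate sits between flexible linkers in a Bxb1-sfGFP-TEVs-SsrA fusion, so cleavage stabilises Bxb1 and speeds flipping of a recombination array, read by NGS. The value is the raw area under the fraction-flipped curve over 0-4 h after rhamnose induction (AUC4h), with ≥20 reads per time point. It is not background-subtracted; inactive controls average about 0.047.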
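Also: Bxb1 expression induced with 0.2% (w/v) L-rhamnose at OD600 near 0.5, cultures sampled hourly, flipped fraction per protease–substrate barcode pair counted by paired-end Illumina sequencing.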

Variant	area with substrate ENLYDQS	area with substrate ENLYEQS	area with substrate ENLYGQS	area with substrate ENLYHQS	area with substrate ENLYKQS	area with substrate ENLYLQS	area with substrate ENLYMQS	area with substrate ENLYNQS	area with substrate ENLYPQS	area with substrate ENLYVQS	area with substrate ENLYWQS	area with substrate ENLYYQS	area with substrate ENLYIQS	area with substrate ENLYQQS	area with substrate ENLYRQS	area with substrate ENLYSQS	area with substrate ENLYTQS
C20F	0.0457	0.0481	0.0389	0.0597	0.0436	0.0526	0.0553	0.0551	0.0118	0.0569	0.0574	0.0527					
L22K	0.0478	0.0464		0.0344	0.052	0.0521	0.0312	0.0324	0.052	0.0418	0.0458	0.0507	0.0478	0.0601			
L22V	0.0442	0.0527	0.0587	0.0732	0.0462	0.0283	0.0823	0.0674	0.0681	0.0984	0.0722	0.0725	0.127	0.0728	0.0729	0.0824	0.0638
D27K	0.0723	0.0622	0.0603	0.0322	0.0664	0.0753	0.0574	0.0521		0.0991	0.07		0.108			0.0548	
H29R	0.0562	0.0758			0.0777		0.0843	0.0664	0.0746			0.051	0.107		0.0607		0.0831
T31P	0.0598	0.0586	0.0591	0.0582		0.0425	0.0556	0.0506	0.0531		0.0632		0.0618	0.0549	0.0551	0.0333	
T44K	0.0403	0.0431	0.0372	0.0304	0.0247	0.0471	0.0379	0.0565	0.0549	0.057	0.0401	0.0483	0.0475	0.0287	0.0595		
N45H	0.0612	0.0649	0.0422	0.0579	0.0634		0.0686	0.058	0.0781	0.0657			0.0641	0.062	0.0527	0.105	
K46P	0.0664	0.05	0.0555	0.0621	0.0586	0.0577	0.0621	0.0708	0.077		0.0526	0.0632	0.0618	0.0582		0.0548	0.0573
H47D	0.0556	0.0704	0.0623	0.0602	0.0589		0.0473	0.0625	0.0572	0.0123			0.0426	0.0529	0.0366	0.0381	0.054
H47K	0.07	0.0592	0.0716	0.0588	0.0874		0.0655	0.0572	0.0709	0.0546	0.056	0.0669	0.061	0.0534	0.0343	0.0593	
F49K	0.0591	0.0543		0.0559	0.0183	0.0677	0.0543	0.0519	0.0576		0.0571	0.0733	0.0561	0.0592		0.0488	0.0498
F49V	0.0746	0.0652	0.0597	0.0597	0.0593	0.0534		0.0724	0.0592		0.0567	0.069	0.0631		0.0578	0.0631	0.0672
R50D	0.0588	0.0595		0.0491	0.0266	0.0767		0.0779			0.0602					0.0675	
G54L	0.0543	0.0609	0.0458	0.0515	0.0647	0.0585	0.0608	0.0592	0.0592		0.0526	0.0369	0.0639	0.044	0.0631	0.0628	0.0599
F65W	0.0614	0.0721	0.0709	0.0628	0.0622		0.0789	0.0665		0.0929	0.128	0.0622				0.0659	0.0788
K66P	0.048	0.0647	0.0569	0.0538	0.0496	0.0701	0.0727	0.0455	0.077	0.0979	0.0608	0.0617	0.0969	0.0666	0.0251		0.074
T71L	0.0747		0.0636		0.0467	0.0702	0.0747	0.0686		0.106			0.102	0.0608			0.0909
T71W	0.0797	0.0607	0.0783	0.0375	0.0589	0.0019		0.0515	0.0338	0.0993	0.0709	0.0614	0.15		0.0326		0.0487
L73P	0.0564	0.0542	0.0519	0.0509	0.0331		0.0588	0.0575	0.0525	0.0604	0.055			0.0531		0.0544	0.0654
L73Y	0.0605	0.0752	0.054	0.0579	0.0635	0.0509	0.0686		0.0574	0.0683	0.0583	0.0729	0.064	0.0665	0.0537	0.0548	
Q74V	0.0759	0.0645	0.0847		0.055		0.0528	0.061	0.0645	0.0879		0.059	0.0832	0.0667		0.0515	0.0866
L77N	0.0666	0.0548	0.0685	0.0266	0.062	0.0547	0.0594	0.0626	0.0698	0.0783	0.0544	0.0796	0.0671	0.0621	0.0592		0.0584
V78F	0.0622	0.0585	0.0721	0.0635	0.0645	0.086		0.0549					0.109	0.0506		0.0683	
I85P	0.0471	0.0352	0.0393	0.0447				0.0446	0.0322	0.0389	0.0367		0.0485	0.0702		0.0489	
E103C	0.0618	0.0727	0.0672	0.0376	0.0694		0.107	0.0749	0.0927	0.076	0.0932	0.0626	0.135	0.0787		0.0839	
